Screen size: about 50,000 compounds; about 800 (1.6%) showed an effect of 50% or more. This is one part of the list.

The assay addresses Bcl-2-like protein 10 (Homo sapiens) (UniProt Q9HD36). Kind of assay: TR3 peptide-Bcl-B binding displacers, biochemical primary FP assay, phenotype converters (AID 1240).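 Note: 0% = Bcl-B with tracer peptide and DMSO and 100% = tracer peptide lacking Bcl-B.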 The following applies: GST-Bcl-B / FITC-TR3 peptide fluorescence polarization; stronger effect = higher value; compound at 3.75 mg/L. For orientation: Polarisation of emitted light reports the rotation of a fluorescent probe.
Sequence of UniProt Q9HD36 (Q9HD36 whole entry, looked up): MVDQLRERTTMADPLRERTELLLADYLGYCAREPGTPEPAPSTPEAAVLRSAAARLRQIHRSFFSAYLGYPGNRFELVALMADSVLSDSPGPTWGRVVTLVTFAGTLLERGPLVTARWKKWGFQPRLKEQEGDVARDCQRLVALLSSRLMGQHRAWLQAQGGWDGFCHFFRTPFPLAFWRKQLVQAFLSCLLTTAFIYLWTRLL
In the case of `CCOC(=O)c1c(NC(=O)C2C3C=CC(C3)C2C(=O)O)sc2c1CCC(C(C)(C)C)C2` (stereo unspecified), the displacement is 0.4%. On to `CCOc1ccc(C(=O)Nc2ccc(Cc3ccncc3)cc2)cc1Br`, for which the displacement is -56.1%. Turning to `Cc1ccc(N2C(=O)C3ON(c4ccccc4)C(c4ccc(F)cc4)C3C2=O)cc1` (stereo unspecified), the displacement was 7.9%. Regarding `O=C(Nc1ccc(-c2nc3ccccc3o2)cc1)c1ccc2c(c1)OCCO2`, the displacement was found to be 3.4%. Turning to `Oc1ccc2ccccc2c1/C=N/N1CCN(c2ccccn2)CC1`, the displacement was -4%. `Cc1cc(OCC(=O)Nc2cc([N+](=O)[O-])ccc2Cl)ccc1Br`: the displacement came to 4.6%. For `O=C1CC(N2CCN(c3ccc([N+](=O)[O-])cc3)CC2)C(=O)N1CCc1ccccc1` (stereo unspecified), the displacement was 4.5%. Under `COc1ccc(/C=C2\C=C(c3ccc(C)cc3)OC2=O)cc1C` stands 10.4%; under `COc1ccc(CN=C(Nc2ccccc2)SC2CC(=O)N(c3cccc(Cl)c3)C2=O)cc1` (stereo unspecified), -4.6%; under `COc1ccc(/C=C2/SC(=S)N(Cc3ccccc3)C2=O)c(OC)c1`, -4%.

Turning to `O=C(Sc1nnc(-c2cccc(Br)c2)o1)c1ccc([N+](=O)[O-])cc1`, the displacement is 12.1%.

For `O=S(=O)(Nc1ccc(Nc2ccc(F)cc2)cc1)c1ccc(F)cc1`, the displacement was found to be 12.4%. Under `COc1ccc2c(c1)c(/C=C/c1nc3ccccc3c(=O)n1-c1ccccc1[N+](=O)[O-])c(C)n2C` stands -5.3%; under `CC(C)NC(=O)C(=O)NCc1ccc2c(c1)OCO2`, 0.4%.

Turning to `COc1ccc(C(=O)CN2C3=NCCCN3c3ccccc32)cc1OC`, the displacement was -8.1%. For `Cc1ccc(O)c(C2=NOC(O)(C(F)(F)F)C2)c1` (stereo unspecified), the displacement is -5.2%. Take `O=C(CSc1nc2ccccc2s1)N/N=C/c1cccc2ccccc12`: the displacement was found to be 19.7%.

In the case of `Cc1ccc2c(Cl)c(C(=O)NC34CC5CC(CC(C5)C3)C4)sc2c1`, the displacement was -6.3%. Under `O=C(Nc1ccc(I)cc1Cl)c1ccc(-c2ccccc2)cc1` stands -5.6%; under `O=C(COc1ccc2ccccc2c1)NCc1ccccn1`, -0.7%. As for `CC(=O)C1=C(C)NC(C)=C(C(C)=O)C1c1cn(-c2ccccc2)nc1-c1cccs1`, the displacement is 6.8%.

For `COC(=O)c1ccc2c(c1)C1C=CCC1C(c1cccc3ccccc13)N2` (stereo unspecified), the displacement was -0.3%.

For the compound `COc1cc(C(=O)Nc2cc(C(F)(F)F)ccc2Cl)cc(OC)c1OC`, the displacement turned out to be 4.6%.

With `CCOC(=O)c1c(C)nc(C)c(C(=O)OCC)c1-c1ccccc1`, the displacement stood at 3.7%.

In the case of `O=C(COc1ccc2c(c1)oc(=O)c1ccccc12)c1ccccc1`, the displacement is 19.5%. As for `Cc1cc(C)cc(N2C(=O)NC(=O)/C(=C\c3cc(Br)ccc3OCC(=O)O)C2=O)c1`, the displacement is -7.4%. Under `Cc1ccc(NCCC(=O)c2ccc(C)o2)cc1` stands 14.9%.

For `Cc1cccc(C)c1-n1c(C)cc(/C=N/NC(=O)c2ccncc2)c1C`, the displacement is -13.1%. Turning to `Cc1cccc(-c2nc3sc4c(c3c(=O)o2)CCCCC4)c1`, the displacement is -11.4%. Under `O=C(/C=C/c1ccc(Cl)cc1)NCC1CCCO1` (stereo unspecified) stands -2.4%; under `CCc1ccc(C2C(C(=O)OCCc3ccccc3)=C(C)NC3=C2C(=O)CCC3)cc1` (stereo unspecified), -9%; under `Cc1cc2nc(-c3cc(NC(=O)COc4ccc([N+](=O)[O-])cc4)ccc3O)oc2cc1C`, 0.2%. Under `O=C(O)c1cccc2c(Br)ccc(C(=O)O)c12` stands 0.1%. Under `O=C(CSc1nnc(-c2ccco2)n1-c1ccccc1)CSc1nnc(-c2ccco2)n1-c1ccccc1` stands 15.9%.

`CCOCCOC(=O)C1=C(C)N(C)C(=O)NC1c1ccc(OCc2ccccc2)cc1` (stereo unspecified): the displacement was 2.2%. Turning to `C/C(=N/NC(=O)COc1cccc(Cl)c1)c1ccccc1O`, the displacement was determined as 9.1%. Under `O=C(/C=C/c1ccccc1)NCCSCc1ccccc1Cl` stands -2.7%; under `O=c1c2c(nc3cc(-c4cccs4)[nH]n13)CCCC2`, 20.5%. Take `CCOc1ccc(NC(=S)NC(NC(=O)Cc2cccc3ccccc23)C(Cl)(Cl)Cl)cc1` (stereo unspecified): the displacement is 9.2%.

For `Cc1ccc(OCC(=O)N/N=C\c2ccco2)cc1`, the displacement stood at 7.8%. Consider `CCCCOC(=O)C1=C(C)NC2=C(C(=O)CCC2)C1c1cccc(C(F)(F)F)c1` (stereo unspecified), for which the displacement was -3.1%. Regarding `CCOc1cc(C(=O)N2CCN(C)CC2)cc(OCC)c1OCC`, the displacement is 0.4%. Under `O=[N+]([O-])c1ccc(N2CCCC2)cc1Sc1cccc2cccnc12` stands 3.9%; under `CN(C)c1ccc(C(=O)N2CCN(c3ccc([N+](=O)[O-])cc3)CC2)cc1`, 11.9%. With `CCOC(=O)c1c(C)oc2ccc(NS(=O)(=O)c3cc(C)ccc3C)cc12`, the displacement was -0.8%. Under `CC(NC(=O)c1cccc(Cl)c1)c1ccccc1` (stereo unspecified) stands -5.3%; under `COc1ccccc1C(=O)O/C(=C/c1nc2ccccc2n1C)c1ccccc1OC`, 9.4%; under `COc1cccc(NC(=O)c2ccc(OC)c([N+](=O)[O-])c2)c1`, 1.1%.

For the compound `Cc1nc(-c2cccc([N+](=O)[O-])c2)cs1`, the displacement is 17.5%. Under `COc1ccc(CCN2C(=O)CC(Cc3ccccc3)C2=O)cc1OC` (stereo unspecified) stands 0.4%; under `COc1ccc(OC)c(/C=C2\C(=O)NN(c3ccc(Cl)c(Cl)c3)C2=O)c1`, 15%; under `CCCc1nc2ccccc2n1CC(O)COc1ccc(I)cc1` (stereo unspecified), -4.5%.

With `O=C(/C=C/c1cc(Br)cs1)Nc1cccc2cccnc12`, the displacement was 10.6%.

Regarding `COc1ccc(NC(=O)c2ccc(C3SCC(=O)N3Cc3ccccc3)cc2)cc1` (stereo unspecified), the displacement is -4%.

Regarding `CCC(=O)NC(=O)NC(Cc1ccccc1)Cc1ccccc1`, the displacement turned out to be 2.2%. Consider `O=C(COc1nc2ccccc2s1)n1c2ccccc2c2ccccc21`, for which the displacement worked out at 12.7%. Under `Cc1cccc(Cl)c1OCCCCn1ccnc1` stands -1.4%; under `O=C(Nc1ccc(-c2ccc(Cl)cc2)cc1)c1sc2ccccc2c1Cl`, 3%; under `Cc1ccc(-c2nc3ccc(Br)cc3c(C(=O)O)c2C)cc1`, -2%. For the compound `c1ccc(CCCN2CCN(C3CCCC3)CC2)cc1`, the displacement is -3.6%. `O=C1NCC2=C1C(c1ccc(O)cc1)Nc1ccccc1N2` (stereo unspecified): the displacement was -8.3%. Under `O=C(C(c1ccccc1)c1ccccc1)N1CCN(Cc2ccc(F)cc2)CC1` stands -18.5%; under `C/C(CC(=O)N1CCCC1)=N\NC(=O)C(=O)Nc1ccccc1`, -7.7%.

Consider `Cc1ccc(C2(c3ccc(C)o3)C(=O)Nc3ccccc32)o1`, for which the displacement was 22%. In the case of `C=CCCCC(=O)Nc1nc2ccc(OCC)cc2s1`, the displacement is 1.7%. Take `CCC1(C)CC(CC(=O)O)(c2ccc(OC)cc2)CCO1` (stereo unspecified): the displacement is -11.3%. Under `COc1ccc(NS(=O)(=O)c2ccc(Br)cc2)cc1OC` stands 2.2%.

For the compound `O=[N+]([O-])c1ccc(Cl)c(C2N(c3ccccc3)CCN2c2ccccc2)c1`, the displacement is -6.1%. Under `COc1cc(/C=N/NC(=O)c2ccncc2)ccc1OC(=O)c1cc(OC)c(OC)c(OC)c1` stands 10.8%. For `COc1ccc(C2Nc3ccccc3C(=O)N2c2ccccc2)cc1CN1C(=O)c2ccccc2C1=O` (stereo unspecified), the displacement is -11.6%. On to `O=C(O/N=C/c1ccc([N+](=O)[O-])cc1)c1cccs1`, for which the displacement came out at 12.4%. Under `CC(C)Oc1ccc(C(=O)N2CCCc3ccccc32)cc1` stands -4.5%. `O=C(Nc1ccccc1)Nc1nnc(COc2ccc(Cl)cc2)s1`: the displacement worked out at 15.6%.

On to `CN1CN=C2SC3(COC(c4cccc(Br)c4)OC3)C(=O)N2C1` (stereo unspecified), for which the displacement turned out to be 3.7%.

As to `O=C(c1ccc(F)cc1)N1CCN(Cc2ccc3c(c2)OCO3)CC1`, the displacement was -6.7%.

With `CCN(CC)C1=NS(=O)(=O)c2ccccc21`, the displacement worked out at 13.6%. Take `Cc1ccc(-c2nc3ccccn3c2NC(=O)c2ccc(Cl)cc2)cc1`: the displacement turned out to be 8%. `OC(CNCc1ccccc1)(c1ccccc1)c1ccc(Br)cc1` (stereo unspecified): the displacement is -1.2%. `COc1cc(C2Nc3cc(C)ccc3NC3=C2C(=O)CC(C)(C)C3)ccc1O` (stereo unspecified): the displacement is -24.1%. Under `Brc1ccc(/C=N/N2CCN(Cc3cccc4ccccc34)CC2)s1` stands -11%; under `CCOC(=O)c1nnn(-c2nonc2N)c1-c1ccccc1`, -0.3%; under `CC1(C)CC(=O)C=C(NCC2CCNCC2)C1`, -8.4%. With `Cc1ccc(S(=O)(=O)NCc2ccco2)cc1[N+](=O)[O-]`, the displacement is -8%. Under `O=C(Nc1ccncc1)c1cc2nc(-c3cccs3)cc(C(F)(F)F)n2n1` stands 3.7%. With `Cc1cc(C)cc(NC(=O)Cn2cc(C=O)c3ccccc32)c1`, the displacement is 13.6%. Under `O=C(NCCCc1ccccc1)C(F)(F)F` stands 85.1%; under `O=C(/C=C/c1ccc2c(c1)OCO2)Nc1ncccn1`, 11.2%.

For `Cc1cc(C)c(C)c(OCCCN2CCCC2)c1`, the displacement amounted to 6.3%. Under `Cc1cccc(C2=N/C(=C\c3ccccc3OS(=O)(=O)c3ccccc3)C(=O)O2)c1` stands -2.2%; under `O=C(COC(=O)c1ccc(S(=O)(=O)NCc2ccco2)cc1)c1ccc(Cl)cc1`, -1.7%; under `O=C1S/C(=C/c2ccc(O)c(O)c2)C(=O)N1c1ccccc1`, -0.3%.

With `Cc1cc(OCCN2CCCC2)ccc1Cl`, the displacement is -2.8%. Under `Cc1ccc(/C=N/NC(=O)C2CC(=O)N(c3ccccc3)C2)cc1` (stereo unspecified) stands -3.6%; under `COc1ccc(OC)c(/C=C/C(=O)Nc2cc(OC)ccc2OC)c1`, 3.8%; under `Cc1ccc(N2C(=O)NC(=O)/C(=C/c3cccc(F)c3)C2=O)cc1`, 3%. For `CCC(C)OC(=O)C1=C(C)NC2=C(C(=O)CCC2)C1c1ccc(OC)c(OCc2ccccc2)c1` (stereo unspecified), the displacement amounted to 2.4%.

As for `COc1ccccc1CC1CC(=O)N(c2cccc(Cl)c2C)C1=O` (stereo unspecified), the displacement is -1.7%. In the case of `Cc1ccc(NC(=O)n2ccc(C(=O)N3CCOCC3)n2)cc1`, the displacement stood at 9.7%. Under `Cc1ccc(C)c(NC(=S)Nc2ccc(F)cc2)c1` stands -6%. As for `C=CCNC(=O)C(=O)Nc1ccc(C)cc1`, the displacement is 10.1%.

As to `Cc1nnc(Oc2ccc([N+](=O)[O-])cc2)c2ccccc12`, the displacement was -12%.

Regarding `O=C(NCC1CCN(C(=O)c2ccc(Cl)c(Cl)c2)CC1)c1ccc(Cl)c(Cl)c1`, the displacement turned out to be 3.8%. For the compound `O=C1C(=Cc2ccc(Sc3ccccc3)o2)C(=O)c2ccccc21`, the displacement was 163%. Turning to `Cc1cccc(NC(=O)c2cc([N+](=O)[O-])ccc2Cl)c1Cl`, the displacement was -8.5%.

Consider `Cc1cccc(NC(=O)CC2SC(N)=NC2=O)c1C` (stereo unspecified), for which the displacement is -4.7%.

As to `Cc1ccc(C2(C)CC(C)(C)N(C(=O)C3CCCO3)c3ccccc32)cc1` (stereo unspecified), the displacement amounted to 9.1%.

Take `O=C(NCc1ccc2c(c1)OCO2)C(Cl)Cl`: the displacement is -3.7%.

Take `CCOC(=O)Cc1nnc(Nc2ccc(C)cc2C)c2ccccc12`: the displacement worked out at 4.6%. Under `COC(=O)c1ccccc1NC(=O)c1cc(Cl)ccc1Cl` stands 3.9%; under `Cc1ccc(S(=O)(=O)Oc2ccccc2/C=C2\SC(=S)NC2=O)cc1`, 5.2%. In the case of `Cc1cccc(C)c1NC(=O)c1cc2c(C)nn(-c3ccccc3)c2s1`, the displacement is -17%.

Source of the values: PubChem BioAssay AID1240 (Sanford-Burnham Center for Chemical Genomics, 2008).
